US10683309B2, “Xanthine derivatives, their use as a medicament, and pharmaceutical preparations comprising the same” (MAX-DELBRÜCK-CENTRUM FÜR MOLEKULARE MEDIZIN, priority 2016, dated 2020)

Target: recombinant human TPH2 (Swiss-Prot: Q8IWU9) (Homo sapiens (Human), UniProt Q8IWU9)
Assay: In vitro enzyme activity assay, fluorescence-based, TPH2 inhibition
Settings: read-out: IC50 TPH2 (μM) mean; recombinant human TPH2, 40 μM tryptophan, pH 7.0, mean of sample triplicates

Chain of UniProt Q8IWU9 (Q8IWU9 whole entry): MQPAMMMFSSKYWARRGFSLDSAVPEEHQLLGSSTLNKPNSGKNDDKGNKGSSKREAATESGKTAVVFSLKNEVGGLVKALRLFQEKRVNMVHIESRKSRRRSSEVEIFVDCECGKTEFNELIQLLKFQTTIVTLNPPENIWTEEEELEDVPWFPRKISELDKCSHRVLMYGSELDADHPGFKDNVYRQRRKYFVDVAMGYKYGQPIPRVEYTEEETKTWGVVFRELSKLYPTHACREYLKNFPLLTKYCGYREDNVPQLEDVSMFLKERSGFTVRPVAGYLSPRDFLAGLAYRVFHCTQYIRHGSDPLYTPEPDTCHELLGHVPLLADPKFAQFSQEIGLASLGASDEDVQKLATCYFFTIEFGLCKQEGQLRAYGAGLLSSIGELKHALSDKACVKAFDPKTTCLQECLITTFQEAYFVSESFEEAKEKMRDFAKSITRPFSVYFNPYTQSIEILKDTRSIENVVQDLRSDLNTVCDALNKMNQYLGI

Compound | IC50
CCn1c(=O)[nH]c(=O)c2c1nc(Cc1cn3ccccc3n1)n2Cc1ccccc1 [Ex. 1, 8-((H-imidazo[1,2-a]pyridin-2-yl)methyl)-7-benzyl-3-ethyl-1H-purine-2,6(3H,7H)-dione] | 0.043 µM
CCn1c(=O)[nH]c(=O)c2c1nc(Cc1cn3c(n1)CCCC3)n2Cc1ccccc1 [Ex. 2, 7-benzyl-3-ethyl-8-((5,6,7,8-tetrahydroimidazo[1,2-a]pyridin-2-yl)methyl)-3,7-dihydro-1H-purine-2,6-dione] | 0.04 µM
CCn1c(=O)[nH]c(=O)c2c1nc(Cc1cn3c(n1)CCCC3)n2Cc1ccc(-c2ccccc2)cc1 [Ex. 3, 7-([1,1′-biphenyl]-4-ylmethyl)-3-ethyl-8-((5,6,7,8-tetrahydroimidazo[1,2-a]pyridin-2-yl)methyl)-3,7-dihydro-1H-purine-2,6-dione] | 0.039 µM
CCn1c(=O)[nH]c(=O)c2c1nc(Cc1cn3ccccc3n1)n2Cc1ccc(C(=O)OC)cc1 [Ex. 4, Methyl 4-((8-((H-imidazo[1,2-a]pyridin-2-yl)methyl)-3-ethyl-1,2,3,6-tetrahydro-2,6-dioxopurin-7-yl)methyl)benzoate] | 0.02 µM
CCn1c(=O)[nH]c(=O)c2c1nc(Cc1cn3ccccc3n1)n2Cc1ccc2c(c1)OCO2 [Ex. 5, 8-((H-imidazo[1,2-a]pyridin-2-yl)methyl)-7-((benzo[d][1,3]dioxol-5-yl)methyl)-3-ethyl-1H-purine-2,6(3H,7H)-dione] | 0.03 µM
CCn1c(=O)[nH]c(=O)c2c1nc(Cc1cn3ccccc3n1)n2Cc1ccc(C(=O)O)cc1 [Ex. 6, 4-((3-ethyl-8-(imidazo[1,2-a]pyridin-2-ylmethyl)-2,6-dioxo-1,2,3,6-tetrahydro-7H-purin-7-yl)methyl)benzoic acid] | 0.272 µM
CCn1c(=O)[nH]c(=O)c2c1nc(Cc1cn3ccccc3n1)n2Cc1ccc(-c2ccn(C)n2)cc1 [Ex. 7, 3-ethyl-8-(imidazo[1,2-a]pyridin-2-ylmethyl)-7-(4-(1-methyl-1H-pyrazol-3-yl)benzyl)-3,7-dihydro-1H-purine-2,6-dione] | 0.017 µM
CCn1c(=O)[nH]c(=O)c2c1nc(Cc1cn3ccccc3n1)n2Cc1ccc(-c2noc(C)n2)cc1 [Ex. 8, 7-(4-(5-methyl-1,2,4-oxadiazol-3-yl)benzyl)-8-((H-imidazo[1,2-a]pyridin-2-yl)methyl)-3-ethyl-1H-purine-2,6(3H,7H)-dione] | 0.018 µM
CCn1c(=O)[nH]c(=O)c2c1nc(Cc1cn3ccccc3n1)n2Cc1ccc(-c2ncccn2)cc1 [Ex. 9, 3-ethyl-8-(imidazo[1,2-a]pyridin-2-ylmethyl)-7-(4-(pyrimidin-2-yl)benzyl)-3,7-dihydro-1H-purine-2,6-dione] | 0.02 µM
CCn1c(=O)[nH]c(=O)c2c1nc(Cc1cn3ccccc3n1)n2Cc1ccc(-c2nccs2)cc1 [Ex. 10, 3-ethyl-8-(imidazo[1,2-a]pyridin-2-ylmethyl)-7-(4-(thiazol-2-yl)benzyl)-3,7-dihydro-1H-purine-2,6-dione] | 0.017 µM
CCn1c(=O)[nH]c(=O)c2c1nc(Cc1cn3ccccc3n1)n2Cc1ccc(-c2nc(C)no2)cc1 [Ex. 12, 3-ethyl-8-(imidazo[1,2-a]pyridin-2-ylmethyl)-7-(4-(3-methyl-1,2,4-oxadiazol-5-yl)benzyl)-3,7-dihydro-1H-purine-2,6-dione] | 0.02 µM
CCn1c(=O)[nH]c(=O)c2c1nc(Cc1cn3nc(C)sc3n1)n2Cc1ccccc1 [Ex. 13, 7-benzyl-3-ethyl-8-((2-methylimidazo[2,1-b][1,3,4]thiadiazol-6-yl)methyl)-3,7-dihydro-1H-purine-2,6-dione] | 0.018 µM
CCn1c(=O)[nH]c(=O)c2c1nc(Cc1cn3ccsc3n1)n2Cc1ccccc1 [Ex. 14, 7-benzyl-3-ethyl-8-(imidazo[2,1-b]thiazol-6-ylmethyl)-3,7-dihydro-1H-purine-2,6-dione] | 0.011 µM
CCn1c(=O)[nH]c(=O)c2c1nc(Cc1cn3ccsc3n1)n2Cc1ccc(-c2ccn(C)n2)cc1 [Ex. 15, 7-(4-(1-methyl-1H-pyrazol-3-yl)benzyl)-3-ethyl-8-((imidazo[2,1-b]thiazol-6-yl)methyl)-1H-purine-2,6(3H,7H)-dione] | 0.014 µM
CCn1c(=O)[nH]c(=O)c2c1nc(Cc1cn3cc(C)sc3n1)n2Cc1ccccc1 [Ex. 16, 7-benzyl-3-ethyl-8-((2-methylimidazo[2,1-b]thiazol-6-yl)methyl)-1H-purine-2,6(3H,7H)-dione] | 0.016 µM
CCn1c(=O)[nH]c(=O)c2c1nc(Cc1cn3cc(C)sc3n1)n2Cc1ccc(-c2ccn(C)n2)cc1 [Ex. 17, 3-ethyl-7-(4-(1-methyl-1H-pyrazol-3-yl)benzyl)-8-((2-methylimidazo[2,1-b]thiazol-6-yl)methyl)-3,7-dihydro-1H-purine-2,6-dione] | 0.021 µM
CCn1c(=O)[nH]c(=O)c2c1nc(Cc1cn3c(n1)CCCC3)n2Cc1ccc(-c2ccn(C)n2)cc1 [Ex. 18, 7-(4-(1-methyl-1H-pyrazol-3-yl)benzyl)-3-ethyl-8-((5,6,7,8-tetrahydroimidazo[1,2-a]pyridin-2-yl)methyl)-1H-purine-2,6(3H,7H)-dione] | 0.03 µM
CCn1c(=O)[nH]c(=O)c2c1nc(Cc1cn3ccccc3n1)n2Cc1ccc(CC(=O)OC)cc1 [Ex. 19, methyl 2-(4-((3-ethyl-8-(imidazo[1,2-a]pyridin-2-ylmethyl)-2,6-dioxo-1,2,3,6-tetrahydro-7H-purin-7-yl)methyl)phenyl)acetate] | 0.038 µM
CCn1c(=O)[nH]c(=O)c2c1nc(Cc1cn3cc(Cl)sc3n1)n2Cc1ccc(-c2ccn(C)n2)cc1 [Ex. 20, 8-((2-chloroimidazo[2,1-b]thiazol-6-yl)methyl)-3-ethyl-7-(4-(1-methyl-1H-pyrazol-3-yl)benzyl)-3,7-dihydro-1H-purine-2,6-dione] | 0.024 µM
CCn1c(=O)[nH]c(=O)c2c1nc(Cc1cn3cc(Cl)sc3n1)n2Cc1ccccc1 [Ex. 21, 7-benzyl-8-((2-chloroimidazo[2,1-b]thiazol-6-yl)methyl)-3-ethyl-3,7-dihydro-1H-purine-2,6-dione] | 0.015 µM
O=c1[nH]c(=O)n(C2CC2)c2nc(Cc3cn4ccccc4n3)n(Cc3ccccc3)c12 [Ex. 22, 7-benzyl-3-cyclopropyl-8-(imidazo[1,2-a]pyridin-2-ylmethyl)-3,7-dihydro-1H-purine-2,6-dione] | 0.061 µM
CCn1c(=O)[nH]c(=O)c2c1nc(Cc1cn3ccccc3n1)n2Cc1ccc(CCO)cc1 [Ex. 23, 3-ethyl-7-(4-(2-hydroxyethyl)benzyl)-8-(imidazo[1,2-a]pyridin-2-ylmethyl)-3,7-dihydro-1H-purine-2,6-dione] | 0.071 µM
CCn1c(=O)[nH]c(=O)c2c1nc(Cc1cn3ccccc3n1)n2Cc1ccc(CC(=O)O)cc1 [Ex. 24, 2-(4-((3-ethyl-8-(imidazo[1,2-a]pyridin-2-ylmethyl)-2,6-dioxo-1,2,3,6-tetrahydro-7H-purin-7-yl)methyl)phenyl)acetic acid] | 3.11 µM
CCn1c(=O)[nH]c(=O)c2c1nc(Cc1cn3cc(C)sc3n1)n2Cc1ccc(F)cc1 [Ex. 26, 3-ethyl-7-(4-fluorobenzyl)-8-((2-methylimidazo[2,1-b]thiazol-6-yl)methyl)-3,7-dihydro-1H-purine-2,6-dione] | 0.039 µM
CCn1c(=O)[nH]c(=O)c2c1nc(Cc1cn3cc(C)sc3n1)n2Cc1ccc(OC)cc1 [Ex. 27, 3-ethyl-7-(4-methoxybenzyl)-8-((2-methylimidazo[2,1-b]thiazol-6-yl)methyl)-3,7-dihydro-1H-purine-2,6-dione] | 0.025 µM
